Data published in the RNAGym collection of RNA variant scans (doi:10.1093/nar/gkz1192).
The source gives no read counts; variants with many changes may rest on few reads.

B1: CPEB3 Ribozyme (parent)
chain: UAACAGGGGGCCACAGCAGAAGCGUUCACGUCGCAGCCCCUGUCAGAUUCUGGUGAAUCUGCGAAUUCUGCUGUAUAUCUC

Variants of: B1
Assay: self-cleavage, relative activity (ratio to wild type); higher = more cleavage; in vitro, sequencing
Outline: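 Relative activity was defined as the cleaved/total read fraction for a variant divided by the same fraction for the unmutated ribozyme. CPEB3 self-cleaving ribozyme libraries were made by rounds of error-prone PCR, barcoded, and transcribed in vitro with T7 RNA polymerase for 5 hours at 37°C, and cleavage ran through transcription plus a 15 min DNase I step before EDTA. Illumina sequencing of template-switched reverse transcripts gave the reads, and DNA sequencing mapped the barcodes. Averages come from three batches, using variants with at least 5 reads.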

Variant | self-cleavage
UAACAGGGGGCCACAGCAGAAGCGUUCACGUCGCUGCCCCUGUCAGAUUCUGGUGGAUCAGCGAAUUCUGCUGUAUAUCUU | 0.08
UAACAGGGGGCCACAGCAGAAGCGUUCACGUCGCUGCCCCUGUCAGAUUCUGGUGGAUCAGCUAAUUCUGCCGUAUAUCUC | 0.17
UAACAGGGGGCCACAGCAGAAGCGUUCACGUCGCUGCCCCUGUCAGAUUCUGGUGGAUCUGCGAACUCUGCUGUAUAUCUC | 0.27
UAACAGGGGGCCACAGCAGAAGCGUUCACGUCGCUGCCCCUGUCAGAUUCUGGUGGAUCUGCGAAUUCAGCUGUAUAUCCC | 0.26
UAACAGGGGGCCACAGCAGAAGCGUUCACGUCGCUGCCCCUGUCAGAUUCUGGUGUAUCUGCGAAUUCUGCUUUAUAUCGC | 0.45
UAACAGGGGGCCACAGCAGAAGCGUUCACGUCGCUGCCCCUGUCAGAUUCUGGUGUAGCUGCGAACUCUGCUGUAUAUCUC | 0.04
UAACAGGGGGCCACAGCAGAAGCGUUCACGUCGCUGCCCCUGUCAGAUUCUGGUGUAUCUGCGAAUUCUGCUGUAUACCCC | 0.19
UAACAGGGGGCCACAGCAGAAGCGUUCACGUCGCUGCCCCUGUCAGAUUCUGGUGACUCAGCGAAUUCUGCGGUAUGUCUC | 0.06
UAACAGGGGGCCACAGCAGAAGCGUUCACGUCGCUGCCCCUGUCAGAUUCUGGUGAGUCUGCGGAUUCUGCUGUAUACCUC | 0.12
UAACAGGGGGCCACAGCAGAAGCGUUCACGUCGCUGCCCCUGUCAGAUUCUGGUGAGUCUGCGAGUUCUGCUGUAUAUCUC | 0.14
UAACAGGGGGCCACAGCAGAAGCGUUCACGUCGCUGCCCCUGUCAGAUUCUGGUGAGUCUGAGGAUUCUGCUGUAUAGCUC | 0.06
UAACAGGGGGCCACAGCAGAAGCGUUCACGUCGCUGCCCCUGUCAGAUUCUGGUGAGUCUGCGAAUUCUGUUGUAUAUCUC | 0.17
UAACAGGGGGCCACAGCAGAAGCGUUCACGUCGCUGCCCCUGUCAGAUUCUGGUGAGUCUGCGAAUUCUGCAGUACAUCUC | 0.18
UAACAGGGGGCCACAGCAGAAGCGUUCACGUCGCUGCCCCUGUCAGAUUCUGGUGAGUCUGCGAAUUCUGCGGUAUAUCUC | 0.29
UAACAGGGGGCCACAGCAGAAGCGUUCACGUCGCUGCCCCUGUCAGAUUCUGGUGAGUCUGCGAAUUCUGCUGCAUAUCUC | 0.68
UAACAGGGGGCCACAGCAGAAGCGUUCACGUCGCUGCCCCUGUCAGAUUCUGGUGAGUCUGCGAAUUCUGCUGUAUAGCUC | 0.35
UAACAGGGGGCCACAGCAGAAGCGUUCACGUCGCUGCCCCUGUCAGAUUCUGGUGAGUCUGCGAAUUCUGCUGUAUAUCCC | 0.71

Variant | self-cleavage
UAACAGGGGGCCACAGCAGAAGCGUUCACGUCGCUGCCCCUGUCAGAUUCUGGUGAUUCUGCUGAUUCUGUUGUAUAUCUC | 0.07
UAACAGGGGGCCACAGCAGAAGCGUUCACGUCGCUGCCCCUGUCAGAUUCUGGUGAUUCUGCGAAUUCCGCUGUAUAUCUC | 0.14
UAACAGGGGGCCACAGCAGAAGCGUUCACGUCGCUGCCCCUGUCAGAUUCUGGUGAAUCUGCGGUUUCUGCUGUACUUCUC | 0.08
UAACAGGGGGCCACAGCAGAAGCGUUCACGUCGCUGCCCCUGUCAGAUUCUGGUGAAUCUGCGGAUUUUGCCGUAUAUCUC | 0.08
UAACAGGGGGCCACAGCAGAAGCGUUCACGUCGCUGCCCCUGUCAGAUUCUGGUGAAUCUGCGGAUUCUGCUAUAUAUCUC | 0.77
UAACAGGGGGCCACAGCAGAAGCGUUCACGUCGCUGCCCCUGUCAGAUUCUGGUGAAUCUGCGGACUCUCCUGUAUAUCUC | 0.1
UAACAGGGGGCCACAGCAGAAGCGUUCACGUCGCUGCCCCUGUCAGAUUCUGGUGAAUCUGCGGACUCUGCUGUAUACCUC | 0.15
UAACAGGGGGCCACAGCAGAAGCGUUCACGUCGCUGCCCCUGUCAGAUUCUGGUGAAUCUGCGGAUCCUGCCGUAUUCCUC | 0.06
UAACAGGGGGCCACAGCAGAAGCGUUCACGUCGCUGCCCCUGUCAGAUUCUGGUGAAUCUGCGGAUUCUGCUGCACAUCUC | 0.5
UAACAGGGGGCCACAGCAGAAGCGUUCACGUCGCUGCCCCUGUCAGAUUCUGGUGAAUCUGCGGAUUCUGCUGGAUAUCUC | 0.69
UAACAGGGGGCCACAGCAGAAGCGUUCACGUCGCUGCCCCUGUCAGAUUCUGGUGAAUCUGCGGAUUCUGCUGUAAAUCUC | 0.21
UAACAGGGGGCCACAGCAGAAGCGUUCACGUCGCUGCCCCUGUCAGAUUCUGGUGAAUCUGCGUAUUCAGCUGUAUACCUC | 0.33
UAACAGGGGGCCACAGCAGAAGCGUUCACGUCGCUGCCCCUGUCAGAUUCUGGUGAAUCUGCGUAUUCCGCUGUAAAUCUC | 0.1
UAACAGGGGGCCACAGCAGAAGCGUUCACGUCGCUGCCCCUGUCAGAUUCUGGUGAAUCUGCGAGUUCAGCUGUACAUCUC | 0.12
UAACAGGGGGCCACAGCAGAAGCGUUCACGUCGCUGCCCCUGUCAGAUUCUGGUGAAUCUGCGAUUACUGCUGUAUAUCUC | 0.13
UAACAGGGGGCCACAGCAGAAGCGUUCACGUCGCUGCCCCUGUCAGAUUCUGGUGAAUCUGCGAUUUCUGCUGUAUAACUC | 0.16
UAACAGGGGGCCACAGCAGAAGCGUUCACGUCGCUGCCCCUGUCAGAUUCUGGUGAAUCUGCGAAUUCUGCUGUUUAUCCC | 0.55
